pIC50: −log10 of the molar value.
Tested on: gp46
Experiment: pHSC in vitro assay: gp46/HSP47 mRNA knockdown by siRNA formulations, qRT-PCR
Settings: read-out: in vitro (pHSC) EC50; 20:20 HEDC:S104 liposome with 2% retinoid conjugate; HSP47 KD at six half-log doses of siRNA

## N1,N19-bis((16S)-16-(3,7-dimethyl-9-(2,6,6-trimethylcyclohex-1-en-1-yl)nonanamido)-24,28-dimethyl-15,22-dioxo-30-(2,6,6-trimethylcyclohex-1-en-1-yl)-4,7,10-trioxa-14,21-diazatriacontyl)-4,7,10,13,16-pentaoxanonadecane-1,19-diamide [satDiVA]
  pIC50: 7.85

Reference: EP2998289B1, “COMPOUNDS FOR TARGETING DRUG DELIVERY AND ENHANCING SIRNA ACTIVITY” (NITTO DENKO CORPORATION, priority 2011, dated 2012)
